Reference: PubChem BioAssay AID686979 (National Center for Advancing Translational Sciences (NCATS), 2013)
Values joined by “and” are separate entries in the source; they are usually repeats but may differ in a detail not shown here. Identical values can stand only once. Hit rate of the full screen: of about 420,000 compounds, about 50,000 (12%) were called active. This list was built around the results that the source calls inconclusive (neither active nor inactive); the mix of calls is not that of the screen. Calls follow the shape of the dose curve; as a rule, active = well fitted inhibition curve with a large enough effect; inconclusive = small, poorly fitted or top-dose-only effect; inactive = flat fitted curve, though single readings scatter. Potencies beside an inconclusive call are fits to weak or partial responses and may not hold up.

experiment: qHTS for Inhibitors of human tyrosyl-DNA phosphodiesterase 1 (TDP1): qHTS in cells in presence of CPT; details: chicken DT40 Tdp1-/-;hTDP1 cells + 20 nM CPT, ATP luminescence, 48 h; series mostly up to 46.2 µM; also: nearly all actives have a fitted effect of over 55% in size
Summary of the method: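 Cell growth measured by CellTiter-Glo luminescence after a minimum 48 h, 37 C compound exposure with 20 nM CPT in Tdp1-knockout DT40 cells stably expressing hTDP1, seeded 400/well; qHTS titration format.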
Potency is read from the fitted curve at half-maximal effect; tags tell the direction and shape of the fitted curve.

Q: For `COc1cc(CN(C(=S)NCC(=O)O)C2CCCC2)cc(OC)c1OC`, which Potency is on record?
A: inactive

Q: For `Cc1cc(C(=O)COC(=O)c2ccc([N+](=O)[O-])o2)c(C)n1CC1CCCO1` (centres undefined), which Potency is on record?
A: active: 23.1 µM

Q: With `COc1ccc2[nH]c(=O)c(CN(Cc3cccs3)C(=S)NCC3CCCO3)cc2c1` (centres undefined) as the molecule, how does the Potency read?
A: active: 23.1 µM

Q: With `CC1=C(C#N)CCC(=O)N1Cc1c(C)cc(C)cc1C` as the molecule, how does the Potency read?
A: inconclusive: 23.1 µM [inhibitor, single point]

Q: Which Potency does the source give for `CCc1c(C(=O)NC2CCCCC2)[nH]c(C)c1C(C)=O` here?
A: inconclusive: 6.51 µM [inhibitor, full curve]

Q: Which Potency does the source give for `Cc1cc(C)nc(Nc2nc(C(N)Cc3ccc(C(F)(F)F)cc3)cs2)n1` (centres undefined) here?
A: active: 6.51 µM

Q: Which Potency does the source give for `CC(CN1c2ccccc2Sc2cccnc21)N(C)C` (centres undefined) here?
A: inconclusive: 33.5 µM [inhibitor, single point]

Q: For `Cc1cccc(NC2=C/C(=N/S(=O)(=O)c3cccs3)c3ccccc3C2=O)c1`, which Potency is on record?
A: active: 3.66 µM

Q: With `CCN1CCN(c2ccc(S(=O)(=O)N3CCCCC3)cc2NC(=O)c2sccc2C)CC1` as the molecule, how does the Potency read?
A: inconclusive: 23.1 µM [inhibitor, single point]

Q: Which Potency does the source give for `Cc1ccccc1NC(=S)Nc1cccc([N+](=O)[O-])c1` here?
A: inactive

Q: Which Potency does the source give for `COC(=O)[C@@]1(Cc2ccc(F)cc2)[C@H]2c3cc(C(=O)N(C)C)n(CCCNc4ncc(C(F)(F)F)cc4Cl)c3C[C@H]2CN1C(=O)c1ccccc1` here?
A: inconclusive: 29.1 µM [inhibitor, single point]

Q: For `Cc1cc(C)cc(NC(=S)N(CCN(C)C)Cc2cccs2)c1`, which Potency is on record?
A: inactive

Q: For `NC(=O)CC(NC(=O)Cc1ccc(Cl)cc1)c1ccc(NCCN2CCOCC2)c([N+](=O)[O-])c1` (centres undefined), which Potency is on record?
A: inactive

Q: With `O=C(c1cc(C(F)(F)F)cc(C(F)(F)F)c1)N1CCC2(CC1)CN(c1ccccc1)C2` as the molecule, how does the Potency read?
A: inconclusive: 18.4 µM [inhibitor, partial curve]

Q: For `CCc1c(C)sc2nc3c(C(=O)N4CCOCC4)cc(C(=O)c4cc(F)ccc4O)cn3c(=O)c12`, which Potency is on record?
A: active: 23.1 µM

Q: With `O=C(CCOc1ccccc1)N(Cc1cccnc1)c1nc2ccc(Cl)cc2s1` as the molecule, how does the Potency read?
A: inconclusive: 25.9 µM [inhibitor, single point]

Q: For `CCOc1ccc(NC(=O)CSc2oc(-c3ccc(F)cc3)nc2S(=O)(=O)c2ccc(C)cc2)cc1`, which Potency is on record?
A: active: 5.8 µM

Q: With `Cc1cc2c3c(c1)C1(C(=O)N3C(C)(C)CC2C)C(C#N)=C(N)Oc2n[nH]c(C)c21` (centres undefined) as the molecule, how does the Potency read?
A: inconclusive: 29.1 µM [inhibitor, single point]

Q: With `CCCn1nc(NC(=O)c2ccncc2)c2cc3ccccc3nc21` as the molecule, how does the Potency read?
A: inactive

Q: Which Potency does the source give for `Cc1nc2nc(NC(=O)c3ccc(C(C)(C)C)cc3)[nH]n2c(=O)c1Cc1ccccc1` here?
A: inactive

Q: For `CN(C)CCNc1nc2sc3c(c2c(=O)n1Cc1ccccc1)CCCCC3`, which Potency is on record?
A: inconclusive: 29.1 µM [inhibitor, single point]

Q: Which Potency does the source give for `CCOC(=O)c1ccc(NC(=O)CSc2nc3cc4ccccc4cc3[nH]2)cc1` here?
A: active: 23.1 µM

Q: Which Potency does the source give for `O=C(Nc1ccc(Br)cc1F)c1cc(S(=O)(=O)NC2CCCCC2)ccc1F` here?
A: active: 23.1 µM

Q: Which Potency does the source give for `O=C(CSc1ccccn1)Nc1ccc(F)c([N+](=O)[O-])c1` here?
A: inconclusive: 29.1 µM [inhibitor, single point]

Q: Which Potency does the source give for `Cc1ccc(CN(Cc2ccco2)C(=O)c2oc3cc(Br)ccc3c2C)cc1` here?
A: inconclusive: 20.6 µM [inhibitor, single point]

Q: Which Potency does the source give for `Cc1c(C(=O)OC(C)C(=O)N(C)Cc2ccccc2)oc2ccccc12` (centres undefined) here?
A: inconclusive: 23.1 µM [inhibitor, single point]

Q: Which Potency does the source give for `N#Cc1c(/N=C/N2CCCC2)oc(-c2ccccc2)c1-c1ccccc1` here?
A: inconclusive: 29.1 µM [inhibitor, single point]

Q: For `O=C(NCN1CCN(c2ccccc2F)CC1)c1ccccc1`, which Potency is on record?
A: inactive

Q: Which Potency does the source give for `O=C(CSC1=NCCS1)c1ccc(Cl)cc1` here?
A: inconclusive: 29.1 µM [inhibitor, single point]

Q: For `CC(C)OCCCNC(=O)c1ccc(C2SCC(=O)N2Cc2ccco2)cc1` (centres undefined), which Potency is on record?
A: inactive

Q: For `Cc1ccc(-n2c(=O)c3c4c(sc3n(Cc3cc(=O)n5ccccc5n3)c2=O)CCC4)cc1C`, which Potency is on record?
A: inconclusive: 16.4 µM [inhibitor, partial curve] and inconclusive: 16.4 µM [inhibitor, single point]

Q: Which Potency does the source give for `CC(C)(CN1CCc2ccccc2C1)NS(=O)(=O)c1ccccc1` here?
A: inconclusive: 25.9 µM [inhibitor, single point]

Q: Which Potency does the source give for `CC(=O)N1c2ccccc2N=C(c2ccc3c(c2)OCO3)C1C(=O)NCc1ccccc1` (centres undefined) here?
A: inconclusive: 18.4 µM [inhibitor, partial curve]

Q: With `Cc1nc(Oc2ccc(S(=O)(=O)N3CCOCC3)cc2Cl)c2c3c(sc2n1)CCCC3` as the molecule, how does the Potency read?
A: inconclusive: 18.4 µM [inhibitor, single point]

Q: With `C[C@H](CO)N1C[C@H](C)[C@@H](CN(C)S(=O)(=O)c2cccs2)Oc2c(NC(=O)CCC(F)(F)F)cccc2C1=O` as the molecule, how does the Potency read?
A: inactive

Q: With `COc1ccc(CNC(=O)Cn2ccc3cc(S(=O)(=O)N4CCCCC4)ccc32)cc1OC` as the molecule, how does the Potency read?
A: inconclusive: 16.4 µM [inhibitor, single point]

Q: With `CCc1ccc(S(=O)(=O)Nc2ccc(-c3ccc4nnc(C)n4n3)cc2)s1` as the molecule, how does the Potency read?
A: inconclusive: 18.4 µM [inhibitor, single point]

Q: Which Potency does the source give for `COc1ccc(OC)c(C2CC(c3ccccc3)=NN2C(=S)Nc2ccccc2)c1` (centres undefined) here?
A: active: 3.66 µM

Q: With `CCCCOCCCNC(=O)c1c(-c2ccccc2)noc1C` as the molecule, how does the Potency read?
A: inactive

Q: For `Cc1[nH]c2ccccc2c1/C=N/Nc1ccc([N+](=O)[O-])cc1S(=O)(=O)Nc1ccc(Cl)cc1`, which Potency is on record?
A: active: 20.6 µM

Q: For `COC(=O)CNC(=O)c1sc2ncn(CC(=O)Nc3ccc(C)c(Cl)c3)c(=O)c2c1C`, which Potency is on record?
A: inconclusive: 29.1 µM [inhibitor, single point]

Q: Which Potency does the source give for `O=[N+]([O-])c1nn(-c2ccc3c(c2)OCCO3)n(O)c1=Nc1ccccc1` here?
A: active: 25.9 µM

Q: With `CCNC(=O)c1c(O)c2ccccc2[nH]c1=O` as the molecule, how does the Potency read?
A: inconclusive: 18.4 µM [inhibitor, partial curve]

Q: Which Potency does the source give for `NC(=O)c1ccc(NC(=O)COC(=O)c2c3c(nc4ccccc24)/C(=C\c2ccc4c(c2)OCO4)CCC3)cc1` here?
A: active: 11.6 µM
